Laboratory results: PubChem BioAssay AID2100 (National Center for Advancing Translational Sciences (NCATS), 2009)
In all, about 300,000 compounds went through this assay and about 1,200 (0.4%) were called active. Inconclusive results, whose numbers are uncertain, are shown with a selection of clear calls. The call rests on the fitted dose curve; in most records, active means well fitted inhibition curve with a large enough effect; inconclusive means small, poorly fitted or top-dose-only effect, or another doubt; inactive means no such curve, though single readings can be large or run the other way. Potencies of inconclusive entries are doubtful fits and often do not repeat.

Each compound was assayed against Lysosomal alpha-glucosidase (Homo sapiens) (UniProt P10253) (assay: qHTS Assay for Inhibitors and Activators of Human alpha-Glucosidase Cleavage of Glycogen). Details: recombinant GAA, glycogen substrate, Amplex Red glucose oxidase fluorescence; activity change, negative = inhibition: at 76.4 µM (top of the series) unless noted.
In short: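 Recombinant human alpha-glucosidase (4 nM final) hydrolysed bovine liver glycogen (30 ug) for 40 min at 37 C in pH 5.0 citrate/phosphate with 0.01% Tween-20. Released glucose detected by glucose oxidase/Amplex Red, Ex 573/Em 610 nm. Compounds up to 77 uM; AC50 from Hill fits.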
Potency means the concentration at half of the fitted maximal effect.
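Wherever activity change, negative = inhibition is given: 0% = full enzyme reaction and -100% = no-enzyme basal signal.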

Row | SMILES | Potency | activity change, negative = inhibition
1 | O=C(O)c1ccccc1NC(=O)N1c2ccccc2Sc2ccccc21 | active: 17.8 µM | –
2 | Cc1ccc(NNC(=O)C2CCC2)cc1C | inconclusive: 50.1 µM [inhibitor, single point] | –
3 | COc1cc2c(cc1OC)C(c1cc(OC)c(O)c(OC)c1)CC(=O)N2 (configuration not stated) | inactive | –
4 | Nc1n[nH]c(-c2ccc(Br)cc2)c1Cl | active: 12.6 µM | –
5 | CC1CCCN(Cc2c(O)ccc3c(=O)c(-c4ccc(Cl)cc4)c(C(F)(F)F)oc23)C1 (configuration not stated) | inactive | –
6 | Nc1cc(S(=O)(=O)Nc2cc(Cl)ccc2Cl)ccc1N1CCCC1 | active: 17.8 µM | –
7 | CN1Cc2c(N3CCOCC3)nc(SCCC#N)c(C#N)c2CC1(C)C | inconclusive: 44.7 µM [activator, single point] | –
8 | COc1ccc(N2C3=C(CC4=C2CC(C)(C)CC4=O)C(=O)CC(C)(C)C3)cc1 | inconclusive: 14.1 µM [activator, partial curve] | –
9 | COc1cc(-c2csc(C)n2)ccc1O | inconclusive: 11.1 µM [inhibitor, partial curve] | –
10 | O=C(NNc1nc2cc3c(cc2s1)OCO3)c1ccc(F)cc1 | active: 28.2 µM | –
11 | Cc1cc(Nc2cccc(O)c2)c2cccc(Br)c2n1 | inconclusive: 28.2 µM [inhibitor, partial curve] | –
12 | CCOc1ccc(OCC(=O)c2c(O)c3ccccc3oc2=O)cc1 | inconclusive: 35.5 µM [inhibitor, single point] | –
13 | N#Cc1nc(-c2ccco2)oc1NCc1ccco1 | inconclusive: 39.8 µM [inhibitor, partial curve] | –
14 | Cc1cc(C)c(S(C)(=O)=O)c(NN)n1 | inconclusive: 35.5 µM [inhibitor, partial curve] | –
15 | COc1cccc(NS(=O)(=O)c2cc3c(cc2C)NC(=O)CO3)c1 | inactive | –
16 | CCOc1ccc(C(=O)Nc2cc(C)ccn2)cc1 | inactive | –
17 | COc1ccc2[nH]c(=O)c(CNc3ccc(C)cc3C)cc2c1 | inconclusive: 35.5 µM [activator, single point] | –
18 | CCOC(=O)Nc1sc(NS(=O)(=O)c2ccc(C)cc2)nc1C | active: 28.2 µM | –
19 | Cc1ccccc1NC(=O)N1CCC(CN2CCCC2)CC1 | inconclusive: 11.2 µM [inhibitor, partial curve] | –
20 | CC1=C(Nc2ccc(C(=O)O)cc2)C(=O)c2ccccc2C1=O | inactive | –
21 | Cn1c(-c2ccc(F)cc2)cnc1NCc1ccc(F)cc1F | inconclusive: 31.6 µM [inhibitor, single point] | –
22 | CC1CCCN(C(=O)C2CCN(CCCc3ccccc3)CC2)C1 (configuration not stated) | – | inconclusive: 35.8% [activator]
23 | O=C(Nc1nnc(C(F)(F)F)s1)c1ccc(Br)s1 | inactive | –
24 | Cc1ccc(S(=O)(=O)N2CCN(C(=O)CSc3nnc(C)s3)C2)cc1 | inconclusive: 5.01 µM [inhibitor, partial curve] | –

Row | SMILES | Potency | activity change, negative = inhibition
25 | COc1ccc(/C=N/Nc2nc(-c3ccc(C)cc3)c(NC(C)=O)s2)cc1 | inconclusive: 35.5 µM [inhibitor, single point] | –
26 | COc1ccc(C)cc1NC(=O)C1CCN(S(=O)(=O)c2ccccc2)CC1 | inactive | –
27 | CCOC(=O)C1Cc2cc3c(cc2C1=O)CC(C(=O)OCC)C3=O (configuration not stated) | inconclusive: 24.9 µM [inhibitor, partial curve, poor fit] | –
28 | C=CCc1cccc(C=Nc2cccn3cc(-c4ccccc4)nc23)c1O | inconclusive: 28.2 µM [inhibitor, partial curve] | –
29 | O=c1cc(N2CCc3ccccc32)[nH]c(=O)n1-c1ccc(Br)cc1 | inconclusive: 1.11 µM [inhibitor, full curve, poor fit] | –
30 | COc1ccc2c(Sc3ccc(C)cc3)c(C(=O)NCc3ccc(F)cc3)[nH]c2c1 | inactive | –
31 | COc1cc2sc(C)nc2c2ccccc12 | inactive | –
32 | CC(C)OC(=O)C(C(=O)C(F)(F)F)c1cc(NS(=O)(=O)c2ccc3c4c(cccc24)C(=O)N3)ccc1O (configuration not stated) | inconclusive: 8.91 µM [inhibitor, full curve] | –
33 | O=c1c2ccccc2c(-c2ccccc2)nn1-c1ccc(Cl)c(Cl)c1 | inconclusive: 1.25 µM [inhibitor, partial curve] | –
34 | CC(NO)C(C)(C)NO (configuration not stated) | inconclusive: 9.92 µM [inhibitor, partial curve] | –
35 | Cc1cc(/C=N/NC(=O)c2ccccn2)c(C)n1-c1cccc([N+](=O)[O-])c1 | inconclusive: 28.2 µM [inhibitor, single point] | –
36 | COc1cc(/C=C2\C(=O)NN(c3ccc(C)cc3)C2=O)cc([N+](=O)[O-])c1O | inconclusive: 6.31 µM [inhibitor, partial curve] | –
37 | CC(=O)c1ccc(N2CCN(CC(=O)Nc3ccc(N4CCOCC4)cc3)CC2)cc1 | – | inconclusive: 33.1% [activator]
38 | CCOC(=O)c1ccc(NC(=O)C2(c3ccc(Cl)cc3)CCCC2)cc1 | inconclusive: 398 µM [inhibitor, partial curve] | –
39 | CC1(C)SC(=S)N(/N=C/c2cccnc2)C1N(O)C(=O)Nc1ccccc1 (configuration not stated) | inconclusive: 7.94 µM [inhibitor, single point] | –
40 | Nc1c(NCCN2CCOCC2)c2ccccc2oc1=O | inconclusive: 28 µM [activator, partial curve] | –
41 | CC1CCC/C(=N\NC(=O)c2ccncc2)C1 (configuration not stated) | inconclusive: 22.4 µM [inhibitor, partial curve] | –
42 | Cc1ccc2c3c(cccc13)-c1ccccc1C2=O | inactive | –
43 | O=C(CN1CC(=O)Oc2ccccc21)OCC(=O)c1cccc(Br)c1 | active: 8.84 µM | –
44 | CCC(C)(C)NC(=O)CN(Cc1ccc(F)cc1)C(=O)CCC(=O)Nc1ccccn1 | inconclusive: 11.2 µM [inhibitor, single point] | –
45 | COc1cc(CNc2ccc(N3CCN(C(C)=O)CC3)cc2)ccc1OCc1ccc(F)cc1 | active: 25.1 µM | –
46 | Cc1ccc(C)c(Cn2c3ccccc3c3cnn(CC(=O)NC4CCC(C)CC4)c(=O)c32)c1 (configuration not stated) | inactive | –
47 | Cc1ccc(NC(=O)CSc2nnc(-c3cc4occc4n3C)n2-c2ccccc2C)c(Cl)c1 | inactive | –
48 | CCOC(=O)c1cnc(-n2nc(C)cc2C)nc1NNc1ncc(-c2ccccc2)cn1 | inconclusive: 14 µM [inhibitor, partial curve] | –

Row | SMILES | Potency | activity change, negative = inhibition
49 | O=C(O)C1Nc2c(O)cc(Cl)c([N+](=O)[O-])c2C2C=CCC12 (configuration not stated) | inconclusive: 28.2 µM [inhibitor, single point] | –
50 | COc1cc(/C=N/Nc2snc(SC)c2C#N)ccc1O | inconclusive: 22.2 µM [inhibitor, partial curve] | –
51 | Cc1[nH][nH]c(=O)c1C(c1ccc(-c2ccc(C(=O)O)cc2)o1)c1c(C)[nH][nH]c1=O | inconclusive: 39.8 µM [inhibitor, single point] | –
52 | COc1cc(/C=C2/CCC/C(=C\c3cc(O)c(OC)c(Cl)c3)C2=O)cc(Cl)c1O | inconclusive: 14 µM [inhibitor, partial curve] | –
53 | O=C(NC1CCCCC1)C(c1ccncc1)N(Cc1ccc2c(c1)OCO2)C(=O)c1cnsn1 (configuration not stated) | inconclusive: 24.9 µM [inhibitor, single point] | –
54 | Cc1ccc(C)c(N2CCN(S(=O)(=O)c3ccc4c(c3)NC(=O)CS4)CC2)c1 | inconclusive: 25.1 µM [inhibitor, partial curve] | –
55 | CN(C)C(/C=C/Nc1ccc(O)cc1)=C(C#N)C#N | active: 7.94 µM | –
56 | Cn1ncc([N+](=O)[O-])c1C(=O)N/N=C/c1cccc([N+](=O)[O-])c1 | inactive | –
57 | COc1cc2c(cc1O)C(Cc1ccc(O)cc1)NCC2 (configuration not stated) | inactive | –
58 | Nc1ccc(O)cc1C(=O)OCC(=O)C12CC3CC(CC(C3)C1)C2 | active: 15.7 µM | –
59 | COc1ccc(N=C2C(=O)Nc3c(C)cccc32)cc1 | inconclusive: 14 µM [inhibitor, partial curve] | –
60 | Cc1ccc(Nc2c(-c3ccccc3O)nc3cnccn23)cc1 | inconclusive: 11.2 µM [inhibitor, partial curve] | –
61 | COc1ccc(OC)c(Nc2nc(-c3cccs3)cs2)c1 | inconclusive: 35.5 µM [inhibitor, single point] | –
62 | O=C(O)CC1S/C(=N/N=C/c2ccc(-c3ccccc3[N+](=O)[O-])o2)NC1=O (configuration not stated) | inconclusive: 12.5 µM [inhibitor, partial curve, poor fit] | –
63 | CCOC(=O)c1c(C)n(C)c2ccc(O)c(CN3CCC(C)CC3)c12 | inconclusive: 15.7 µM [inhibitor, partial curve] | –
64 | N#CC/C(N)=N/NC(=O)CCCNc1ncc(C(F)(F)F)cc1Cl | inconclusive: 28.2 µM [inhibitor, partial curve] | –
65 | CCOC(=O)c1c(NC(=O)C(C)Sc2nnc(C)c(=O)[nH]2)sc2c1CCCC2 (configuration not stated) | inconclusive: 35.5 µM [inhibitor, single point] | –
66 | COc1ccc(-c2c(C(=O)O)nc3ccccc3c2C(=O)O)cc1 | inactive | –
67 | CC(=O)c1ccc(NS(=O)(=O)c2cccc(S(=O)(=O)c3ccc(Cl)cc3)c2)cc1 | inconclusive: 14.1 µM [inhibitor, partial curve] | –
68 | O=C(NNC(=O)c1cc2cc3ccccc3nc2s1)c1cccc(Cl)c1 | inactive | –
69 | Oc1cccc(/C=N/Nc2ccc(Cl)nn2)c1O | inconclusive: 3.55 µM [inhibitor, partial curve] | –
70 | COC(=O)c1[nH]c2ccc(F)cc2c1NS(=O)(=O)c1ccc(F)c(C)c1 | inactive | –
71 | Cc1ccc(Nc2nc(C)cs2)cc1 | inconclusive: 31.4 µM [inhibitor, single point] | –
72 | O=C(NN=C1CCCCC1)c1cc(-c2ccccc2)n[nH]1 | inconclusive: 31.4 µM [inhibitor, partial curve] | –
